Data reported in article PMC4336329 (PLoS ONE, 2015).
Among all 310,000 compounds or so, about 2,200 (0.71%) showed an effect of 50% or more. The effect is printed as a negative number. The list shows a part of the results.

Target: human ether-à-go-go-related gene (hERG) potassium channel (human, UniProt Q12809)
Experiment: primary screen, population patch clamp on CHO cells stably expressing hERG

Chain of human ether-à-go-go-related gene (hERG) potassium channel (Q12809 whole entry, looked up): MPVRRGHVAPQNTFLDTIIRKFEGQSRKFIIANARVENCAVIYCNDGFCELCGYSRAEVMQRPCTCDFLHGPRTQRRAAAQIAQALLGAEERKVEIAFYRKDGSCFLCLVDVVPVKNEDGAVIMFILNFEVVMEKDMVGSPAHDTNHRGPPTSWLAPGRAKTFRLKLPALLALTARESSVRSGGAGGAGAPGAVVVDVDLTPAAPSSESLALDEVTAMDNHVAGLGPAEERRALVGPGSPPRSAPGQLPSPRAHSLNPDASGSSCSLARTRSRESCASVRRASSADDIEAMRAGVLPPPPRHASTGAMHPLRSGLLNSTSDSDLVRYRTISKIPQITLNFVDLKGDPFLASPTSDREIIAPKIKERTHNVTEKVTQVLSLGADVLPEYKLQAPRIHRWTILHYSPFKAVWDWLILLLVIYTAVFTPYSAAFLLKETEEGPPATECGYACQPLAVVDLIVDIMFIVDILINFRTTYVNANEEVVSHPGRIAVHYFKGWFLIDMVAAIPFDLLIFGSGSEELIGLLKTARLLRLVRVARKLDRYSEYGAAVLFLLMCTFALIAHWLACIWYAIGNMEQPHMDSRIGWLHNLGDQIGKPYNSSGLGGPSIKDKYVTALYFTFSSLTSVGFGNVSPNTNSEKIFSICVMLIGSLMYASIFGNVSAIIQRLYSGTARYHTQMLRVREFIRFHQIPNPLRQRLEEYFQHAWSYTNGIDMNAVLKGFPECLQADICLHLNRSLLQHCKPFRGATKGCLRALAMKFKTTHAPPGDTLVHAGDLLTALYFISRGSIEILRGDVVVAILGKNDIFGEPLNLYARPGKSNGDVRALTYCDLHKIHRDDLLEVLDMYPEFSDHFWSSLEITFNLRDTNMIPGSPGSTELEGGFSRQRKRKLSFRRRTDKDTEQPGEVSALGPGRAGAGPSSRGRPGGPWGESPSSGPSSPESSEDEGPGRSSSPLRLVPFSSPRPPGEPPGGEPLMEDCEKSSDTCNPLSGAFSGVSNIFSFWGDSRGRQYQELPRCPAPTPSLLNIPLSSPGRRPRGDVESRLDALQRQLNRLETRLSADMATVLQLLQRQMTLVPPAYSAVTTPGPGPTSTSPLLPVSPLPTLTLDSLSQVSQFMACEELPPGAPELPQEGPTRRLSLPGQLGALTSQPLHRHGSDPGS

| SMILES | hERG current change (%, negative = inhibition) at 1uM |
| --- | --- |
| Cc1ccccc1N=Cc1cc2c(cc1O)OC(N)=C(C#N)C2c1ccccc1 (stereo not drawn) | 6.74% |
| O=C(NC(=S)N1CCOCC1)C12CC3CCC(CC(C3)C1)C2 | 7.21% |
| Cc1ccccc1NC(=O)C(=O)NCCc1ccccc1 | 3.31% |
| COc1ccc(CN2CCN(C(=O)CCC(=O)Nc3nnc(C(C)C)s3)CC2)cc1F | 5.48% |
| COc1cc2ncnc(NCc3ccccc3F)c2cc1OC | 10.8% |
| Cl.O=C(NCCCn1ccnc1)C1c2ccccc2Oc2ccccc21 | 0.132% |
| CCC(C)(C)n1nnnc1C(c1ccccc1)N1CCc2ccccc2C1 (stereo not drawn) | -3.33% |
| CSc1nc2c(c(=O)[nH]1)C(c1cccs1)C1=C(CCCC1=O)N2 (stereo not drawn) | 11.1% |
| CCn1cc(C(=O)NCCCN2CC(C)CC(C)C2)c(=O)c2cc(S(=O)(=O)N(C)C)ccc21 (stereo not drawn) | -17.3% |
| O=C(CN1CCOCC1)Nc1ccccc1F | 7.24% |
| O=C(O)c1ccccc1-c1ccccc1C(=O)Nc1cccc(Br)c1 | 11.1% |
| Br.Cn1nc(-c2ccc(OCC(=O)N3CCN(Cc4ccccc4)CC3)cc2)c2ccccc2c1=O | -5.23% |
| CCN1C(=O)C(O)(CC(=O)C(C)(C)C)c2cc(Br)ccc21 (stereo not drawn) | 5.68% |
| CCN(CC)S(=O)(=O)c1ccc(NN=c2c(=O)c3ccccc3c2=O)cc1 | 1.52% |
| CC(C)(C)c1cc(C(=O)N/N=C/c2ccccn2)n[nH]1 | 9.46% |
| O=C(CSc1cccc[n+]1[O-])C12CC3CC(CC(C3)C1)C2 | 6.16% |
| CC(C)C[C@@H](COc1ccccc1)N1CCN(CC(C)C)CCC1=O | -21.2% |
| O=c1c2[nH]c3ccc(F)cc3c2ncn1CCN1CCOCC1 | -15.2% |
| COc1cccc(C(=O)N2CCSC2=S)c1 | -4.5% |
| COc1cc(SC)ccc1C(=O)OC(C)C(=O)Nc1ccc(NC(C)=O)cc1 (stereo not drawn) | 8.79% |
| NC(=O)CC(NC(=O)c1ccc(Br)cc1)c1ccc(NC2CCCCCCC2)c([N+](=O)[O-])c1 (stereo not drawn) | 10.7% |
| Cc1ccc(-c2nnc(N3CCCCC3)c3ccccc23)cc1S(=O)(=O)NCC1CCCO1 (stereo not drawn) | 8.28% |
| CCN(c1ccccc1)S(=O)(=O)c1ccc(Cl)c(C(=O)NCc2ccco2)c1 | -3.11% |
| COc1ccc(-c2cc3nc(C)c(CCC(=O)N4CCN(c5ccccn5)CC4)c(C)n3n2)c(OC)c1 | 4.23% |
